# Results from PubChem BioAssay AID1347120 (National Center for Advancing Translational Sciences (NCATS), 2019).
# In all, about 390,000 compounds went through this assay and about 930 (0.24%) were called active. Inconclusive means that the source gave no clear call. Such entries were picked first, then a sample of the others. Calls follow the shape of the dose curve; as a rule, active = well fitted activation curve with a large enough effect; inconclusive = small, poorly fitted or top-dose-only effect; inactive = no such curve, though single readings can be large or run the other way. A potency beside an inconclusive call is a rough fit, not a confirmed value.
# Assay: qHTS for Suppressors of FUS Proteinopathy: Primary screen using FUS-linked yeast assay; also: nearly all actives have a fitted effect of over 55% in size;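 as to growth rescue (activation): plate controls were DMSO vehicle for no effect and reference control for full effect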
# Conditions: S. cerevisiae FUS-expressing, OD600, 24 h; Potency: growth rescue; growth rescue (activation): at 76.6 µM (top of the series)
# Procedure, shortened: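 Toxicity suppression screen in FUS-yeast. Cells induced with 2% galactose, starting OD 0.005, treated 24hr at 30C with compounds at multiple final concentrations; growth by OD600.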
# Potency is read from the fitted curve at half-maximal effect; tags tell the direction and shape of the fitted curve.
SMILES,Potency,growth rescue (activation)
C[C@]12c3[nH]c4ccc(Cl)cc4c3CCN1C(=O)[C@@H](CC(=O)NCCC1=CCCCC1)C[C@@H]2C(=O)N1CCOCC1,"inconclusive: 22.4 µM [activator, partial curve]",–
CC1CCN(S(=O)(=O)c2ccc(C(=O)Nc3nnc(C4CC4)o3)cc2)CC1,"inconclusive: 12.6 µM [activator, partial curve, poor fit]",–
CCOc1ccc(NC(=O)Cn2c(=O)n(Cc3ccc4c(c3)OCO4)c(=O)c3ccc(C(=O)NC4CCCCC4)cc32)cc1,inactive,–
Cc1ccc(CN(C(=O)COc2ccccc2Cl)c2ccccn2)o1,inactive,–
CCC(C)Sc1nc2c(c(=O)[nH]c(=O)n2C)n1Cc1ccccc1Cl (configuration not stated),"inconclusive: 22.4 µM [activator, partial curve]",–
CC(C)(C)C1CCc2c(sc(NC(=O)C3c4ccccc4Oc4ccccc43)c2C(N)=O)C1 (configuration not stated),inactive,–
COc1ccc(C(=O)NCc2ccccc2OC)c(OC)c1,inactive,–
COC(=O)c1cccc(-c2ccc(C(c3c(C)[nH][nH]c3=O)c3c(C)[nH][nH]c3=O)o2)c1,"inconclusive: 39.8 µM [activator, single point]",–
O=C(Cn1ncc2c(Cl)cccc21)NCc1cccc(Cl)c1,inactive,–
Cc1ccc(-c2cc(C(=O)N/N=C/c3cccnc3)c3ccccc3n2)cc1C,"inconclusive: 39.8 µM [activator, single point]",–
COc1ccc(Nc2nc(N)nc(CSc3nc(C)cc(C)n3)n2)cc1,"inconclusive: 7.08 µM [activator, single point]",–
NC(=O)Cn1c(O)c(N=NC(=O)CNC(=O)/C=C/c2ccccc2)c2ccccc21,"inconclusive: 50.1 µM [activator, single point]",–
CN(CCc1ccccc1)C(=O)c1cccc(NC(=O)Cc2cccc(NC(=O)C3CCN(C(=O)c4ccccc4)CC3)c2)c1,"inconclusive: 28.2 µM [activator, single point]",–
CCCCOCCCNC(=O)C[C@H]1C[C@@]2(C(=O)OC)C(=C[C@H](C3CCCC3)O[C@@H]2C)N(Cc2cccc3ccccc23)C1=O,active: 8.91 µM,–
COc1cc(NC(=O)c2ccccc2)cc(OC)c1,inactive,–
CC1=C(C(=O)Nc2ccccc2C)C(c2cccs2)n2nc(SCc3ccccc3)nc2N1 (configuration not stated),inactive,–
O=C(CSc1nc(O)cc(=O)n1-c1ccccc1)NCc1ccccc1,"inconclusive: 22.4 µM [activator, single point]",–
CCOC(=O)c1nn(-c2ccc(F)cc2)c(=O)c2c(N)scc12,inactive,–
CC(C)CCOc1ccc(Cn2c(=O)oc3ccccc32)cc1,inactive,–
Cc1ccc(NS(=O)(=O)c2cccc(C(=O)NNC(=O)NC3CCCCC3)c2)c(C)c1,"inconclusive: 22.4 µM [activator, partial curve]",–
CC(C)OCCCn1c(=O)c2ccccc2n2c(-c3ccccc3)nnc12,inactive,–

SMILES,Potency,growth rescue (activation)
CCc1nn2c(=O)cc(COC(=O)Cc3ccccc3)nc2s1,inactive,–
COc1ccc(S(=O)(=O)N2CCOCC2)cc1NC(=O)c1ccc(S(=O)(=O)N2CCCCC2)cc1,"inconclusive: 22.4 µM [activator, single point]",–
Cc1ccccc1Cn1c(=O)n(CCCC(=O)NCc2ccco2)c(=O)c2sccc21,"inconclusive: 44.7 µM [activator, partial curve, poor fit]",–
CC(C(=O)N1CCN(c2ccc(Cl)cc2)CC1)c1ncc(C(F)(F)F)cc1Cl (configuration not stated),"inconclusive: 56.2 µM [activator, partial curve, poor fit]",–
Cc1ccc(/C=C/c2nnc(-c3cccs3)o2)cc1,inactive,–
Cc1ccc(OCCn2cc(/C(N)=N/O)c3ccccc32)cc1C,–,inconclusive: 71.4% [activator]
C=CCNC(=S)Nc1ccc(N2CCOCC2)c(S(=O)(=O)Nc2ccccc2Cl)c1,"inconclusive: 35.5 µM [activator, single point]",–
CCCCNC(=O)C[C@H]1C[C@@]2(C(=O)OC)C(=C[C@H](C(C)C)O[C@@H]2C2CC2)N(Cc2ccco2)C1=O,"inconclusive: 31.6 µM [activator, single point]",–
CCc1nnc(NS(=O)(=O)c2ccc(NC(=O)c3cc(Cl)ccc3OC)cc2)s1,"inconclusive: 25.1 µM [activator, single point]",–
C=Cc1ccc(Cn2c(=O)n(-c3cccc(Cl)c3)c(=O)c3c4c(sc32)CN(C(C)=O)CC4)cc1,"inconclusive: 31.6 µM [activator, single point]",–
N#Cc1cccc(NC(=O)OC2CC3CC2[C@H]2CCCCN2C3)c1 (some centres not stated),"inconclusive: 35.5 µM [activator, single point]",–
Cc1ccc(OCCOCCN2CCN(C)CC2)c(C(C)(C)C)c1,inactive,–
O=C(CCCCCn1c(=O)c2sccc2n(Cc2ccc(Cl)cc2)c1=O)NCc1ccc2c(c1)OCO2,inactive,–
CC(C)(C)c1ccc(C(O)c2ncc(-c3ccc4ccccc4c3)[nH]2)cc1 (configuration not stated),"inconclusive: 44.7 µM [activator, single point]",–
Cc1ccnc(NC(=O)Cc2ccc(-c3ccccc3)cc2)c1,inactive,–
O=C(CC(c1ccccc1)c1cc(Cl)ccc1O)N1CCCC1 (configuration not stated),"inconclusive: 50.1 µM [activator, single point]",–
NC(=O)c1c(NC(=O)c2cc3ccccc3o2)sc2c1CCC2,"inconclusive: 17.8 µM [activator, partial curve, poor fit]",–
Cc1cc(C)c(NC(=O)CSc2nc3ccc(NC(=O)CSc4nnnn4Cc4ccccc4)cc3s2)c(C)c1,"inconclusive: 44.7 µM [activator, single point]",–
Cc1nc2ccc(NC(=O)c3ccc(S(=O)(=O)N(C)c4ccccc4)cc3)cc2s1,"inconclusive: 20 µM [activator, partial curve, poor fit]",–
COc1ccc2c(c1)c(=O)c(C(=O)c1ccc(F)cc1)cn2CC(=O)Nc1ccc2c(c1)OCO2,inactive,–
NC(=O)C1(NC(=O)[C@@H]2CC3(CC(c4cccc(NC(=O)c5cc([N+](=O)[O-])cc([N+](=O)[O-])c5)c4)=NO3)CN2C(=O)c2ccccc2)CC1 (some centres not stated),"inconclusive: 17.8 µM [activator, single point]",–
